The record followed here is PMC4242493.

Some of the results follow. The list includes weakly bound sequences.

The test addresses MaxL homodimer (UniProt P61244). As to the kind of experiment: universal protein-binding microarray (PBM). To be noted: PBS-based mixture, 10 nM His-tagged protein dimer, 2% milk, 200 ng/uL BSA, 50 ng/uL salmon testes DNA, 0.02% TX-100; detection with Alexa 488 anti-His …; high values mean tight binding; most listed sequences are background and not binding sites; double strand, one strand shown.
Sequence of UniProt P61244 (P61244 whole entry): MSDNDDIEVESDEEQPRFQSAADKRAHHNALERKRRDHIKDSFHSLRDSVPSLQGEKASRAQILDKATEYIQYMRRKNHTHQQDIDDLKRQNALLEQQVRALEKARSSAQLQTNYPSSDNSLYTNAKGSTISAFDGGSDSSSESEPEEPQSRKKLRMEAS
Take AGACGCGG: the binding signal (normalized occupancy) stood at 0.0692.

For the sequence CTGTTTAC, the binding signal (normalized occupancy) was found to be 0.073.

On to ATCCCCGG, for which the binding signal (normalized occupancy) turned out to be 0.0703. Under ATACGGGC stands 0.0765; under AAAAACTT, 0.0679. Turning to ATCCATAA, the binding signal (normalized occupancy) was determined as 0.0867. The same measure for ATGTTTAC: 0.0826; for CGAATGAC: 0.0771.

On to GTCCGACA, for which the binding signal (normalized occupancy) is 0.0735. Regarding GACAGACC, the binding signal (normalized occupancy) is 0.0741. The same measure for ACTCCAAA: 0.0692.

Turning to ATTTCGGA, the binding signal (normalized occupancy) stood at 0.069. As to GGGTATTA, the binding signal (normalized occupancy) was determined as 0.0764. As for CGGGTGCA, the binding signal (normalized occupancy) worked out at 0.0755.

Regarding AACCTCGC, the binding signal (normalized occupancy) was found to be 0.078. For the sequence CTTGGTAA, the binding signal (normalized occupancy) came out at 0.0757. Take TGGTTGAA: the binding signal (normalized occupancy) was 0.0775. Under CTGTCCTC stands 0.073. Consider AAATGTTC, for which the binding signal (normalized occupancy) was found to be 0.0712. The same measure for ATTTCAAA: 0.0795.

Regarding TACTTCCA, the binding signal (normalized occupancy) is 0.0755. The same measure for CTGCCGGA: 0.0683; for CACGTGAG: 0.245; for ACTCTAGC: 0.0723.

Regarding CTTACTAC, the binding signal (normalized occupancy) was 0.0835. The same measure for GGCCGCTA: 0.0662; for CTATCACA: 0.0865; for AGCCACCG: 0.0649. Under GAAGGCCA stands 0.0704; under ATGAGAAG, 0.078; under AAGCTTCA, 0.0687.

In the case of GTCCTTGA, the binding signal (normalized occupancy) was 0.0749. The same measure for CAGCTAGA: 0.0688; for AATACAAG: 0.0789; for CACTAGAA: 0.0727. For ACATCAGG, the binding signal (normalized occupancy) was 0.0749. Under ATCAAACC stands 0.0805; under CGTAGTCC, 0.0709. As for CTACACGC, the binding signal (normalized occupancy) is 0.0967. Under ATGTGAGC stands 0.0803; under ACGCATCT, 0.0841. GGATCCAA: the binding signal (normalized occupancy) amounted to 0.0747. For ATCTATCG, the binding signal (normalized occupancy) worked out at 0.0779. The same measure for CAGTTATA: 0.0794; for GAGACGGC: 0.0687. With ATCCTATG, the binding signal (normalized occupancy) came to 0.0842.

As for CAGCAATG, the binding signal (normalized occupancy) was determined as 0.082. Under AGGGCAAC stands 0.0704. The same measure for CTCCAACC: 0.0736; for ATAAAGCA: 0.0811; for GTGTGGCA: 0.0843. CCATCCTC: the binding signal (normalized occupancy) amounted to 0.0722.

With AGGCACAG, the binding signal (normalized occupancy) worked out at 0.075. The same measure for CCCTGAGG: 0.0704. In the case of CACCGAAA, the binding signal (normalized occupancy) turned out to be 0.0748. For TCCTTCCA, the binding signal (normalized occupancy) is 0.0795.

Turning to GGTGAAAA, the binding signal (normalized occupancy) turned out to be 0.0772. The same measure for CGCATCTC: 0.0769; for ACAAGATC: 0.0745; for GTCCTCAA: 0.0714. Under TCACGTCA stands 0.0819; under ACAGTCCG, 0.0714.

Take AGCTAGCA: the binding signal (normalized occupancy) is 0.0662. For the sequence ACCAGGAT, the binding signal (normalized occupancy) is 0.0773. As to ATCGGACA, the binding signal (normalized occupancy) was found to be 0.0773. As to AGCAAGGG, the binding signal (normalized occupancy) was found to be 0.072. For CGGGTTCA, the binding signal (normalized occupancy) came out at 0.07.

For CACTCACC, the binding signal (normalized occupancy) was 0.0734. For TATTTTGA, the binding signal (normalized occupancy) amounted to 0.0768.

With GACACGGC, the binding signal (normalized occupancy) came out at 0.0778. Take CTAGTACA: the binding signal (normalized occupancy) was 0.0796. Under ATGTGCGA stands 0.0863; under CCATATGG, 0.123.

CCCGCAAA: the binding signal (normalized occupancy) amounted to 0.0729. As to CGGCTATA, the binding signal (normalized occupancy) worked out at 0.07.

Turning to GGAAGGAA, the binding signal (normalized occupancy) came to 0.0718.

Turning to AGGCAACT, the binding signal (normalized occupancy) is 0.075. TATCGATA: the binding signal (normalized occupancy) came to 0.0806. The same measure for GCCTCCGC: 0.0623; for AGGTGTGA: 0.0887. Under CTCAGACC stands 0.0694; under CGCATCGA, 0.0801. In the case of CATCACAA, the binding signal (normalized occupancy) worked out at 0.0823. The same measure for CGCTCTGA: 0.0752; for GAGACATA: 0.0802. GATTTACC: the binding signal (normalized occupancy) was 0.0744. Consider ATCGTGGC, for which the binding signal (normalized occupancy) was 0.086. With CAACGTCA, the binding signal (normalized occupancy) amounted to 0.0743.

As to TACAGGGA, the binding signal (normalized occupancy) is 0.0781.

For the sequence ACGGAACC, the binding signal (normalized occupancy) is 0.0721. Turning to ATCCTACA, the binding signal (normalized occupancy) was determined as 0.0764.

As to GACGTAAA, the binding signal (normalized occupancy) was 0.0701. For the sequence AAGCTGTA, the binding signal (normalized occupancy) turned out to be 0.0738.

In the case of AATGGATG, the binding signal (normalized occupancy) was 0.0803. Under CTTCCTGA stands 0.073.

Turning to AGAGCGAG, the binding signal (normalized occupancy) was determined as 0.0719.

As to GTGTCACA, the binding signal (normalized occupancy) was found to be 0.0836. The same measure for GGGTACCC: 0.0733; for GTGTGGTA: 0.0868. CTGTGCCA: the binding signal (normalized occupancy) came to 0.067. CTGGGTTA: the binding signal (normalized occupancy) amounted to 0.0751. Regarding CCAAGAGA, the binding signal (normalized occupancy) was 0.0718. The same measure for GGCAAGTA: 0.0715; for ACGCTTAC: 0.0783; for GATAGGGC: 0.074.

ATCCGACG: the binding signal (normalized occupancy) turned out to be 0.0742.

Take AGAATTGC: the binding signal (normalized occupancy) was determined as 0.077. As to ACCGGTGG, the binding signal (normalized occupancy) is 0.0713. As to ATGACGGC, the binding signal (normalized occupancy) came out at 0.0785. Regarding GGTAGTGA, the binding signal (normalized occupancy) turned out to be 0.0804. For the sequence CAAATCGG, the binding signal (normalized occupancy) came to 0.0668. Turning to ATCATATA, the binding signal (normalized occupancy) came out at 0.0893.

Turning to CGCCCTTA, the binding signal (normalized occupancy) worked out at 0.0709. Under AAGACACA stands 0.0794; under GGGTGCCA, 0.0807; under CTATTTCC, 0.0807. Under GAAGTCTC stands 0.0775; under AGGCTCAC, 0.0818; under CTTAGGAA, 0.0761. As to CGGCCCCC, the binding signal (normalized occupancy) turned out to be 0.0709. With CGTGCATC, the binding signal (normalized occupancy) turned out to be 0.0891.

In the case of AATGAACT, the binding signal (normalized occupancy) is 0.0716. The same measure for GCGATCAA: 0.0763; for CATGGATC: 0.0868; for AATATGGC: 0.0866. The same measure for GCAGTGCC: 0.0683; for AGGACCAG: 0.0714. As to GGCCAGAA, the binding signal (normalized occupancy) came out at 0.0712. The same measure for GGCATGCC: 0.0932. Under ATAACTAA stands 0.0784; under GCACGTTA, 0.104. Under GATATAGC stands 0.0839; under CTAGAGGC, 0.0728; under AGTCTTCC, 0.0722. As to CGTACACC, the binding signal (normalized occupancy) is 0.0782. Under CCCAGATA stands 0.0753; under ATACGGGG, 0.0804. For ACGGCCCC, the binding signal (normalized occupancy) amounted to 0.0738.

As for CGCAGCAA, the binding signal (normalized occupancy) is 0.0688.

For the sequence ATCGAAGC, the binding signal (normalized occupancy) came out at 0.0686.

Consider GGGAAATA, for which the binding signal (normalized occupancy) stood at 0.0838.

As to CTCAGGAC, the binding signal (normalized occupancy) was found to be 0.0709.

Regarding CGCCGGGA, the binding signal (normalized occupancy) is 0.0678. For GCGTACCC, the binding signal (normalized occupancy) is 0.0808. Take ACGGGCAA: the binding signal (normalized occupancy) is 0.071. Under ACCTACCT stands 0.0733; under CTGTCACC, 0.0808; under CGACCAGC, 0.0737. Take AATGCGGG: the binding signal (normalized occupancy) was found to be 0.0799.

With ACCTTCAT, the binding signal (normalized occupancy) worked out at 0.0749. As to TCTGCTAA, the binding signal (normalized occupancy) was found to be 0.0734. For the sequence AGGGTGCC, the binding signal (normalized occupancy) is 0.0782.

GATTCCAA: the binding signal (normalized occupancy) was 0.0723. Turning to ATTAACCA, the binding signal (normalized occupancy) was 0.0764. The same measure for CCTAACAA: 0.0755; for CAGATTCA: 0.0717; for ATACGTAT: 0.0856. Under AAACCGCT stands 0.0732; under ACCCGGCG, 0.0738. Turning to ACAACCCT, the binding signal (normalized occupancy) was found to be 0.0791. Under CCCAAAAG stands 0.0645; under GATGATGC, 0.0776; under AGAAGTTA, 0.0729. For the sequence AATGTGAA, the binding signal (normalized occupancy) was 0.0782. As to AGGTTCGA, the binding signal (normalized occupancy) is 0.0713. As to GCTGCACA, the binding signal (normalized occupancy) was found to be 0.0768.

Consider CAAACTCC, for which the binding signal (normalized occupancy) was 0.0727.

As to CATTTAGC, the binding signal (normalized occupancy) was found to be 0.0759.

For TGGAGACA, the binding signal (normalized occupancy) amounted to 0.0748. The same measure for CGCCCAGC: 0.0706.

In the case of GTTGCCTA, the binding signal (normalized occupancy) came to 0.0755.

Regarding GCGGACAC, the binding signal (normalized occupancy) came out at 0.0821.
